B1: UniProt A0EPZ9; numbered along this chain (parent)
chain: MDWQKSLTLIVALTLSRGIGLKNDLPWKLKSDMMFFSRVTSGLLVTRSTGQMNVVLMGRKTWESLPAHSRPLKNRINVVISRQEVLDLGGGAYHARSLDDALALLSQIYDSTSKIQLNRVFVIGGGELCKAAMEHSRLNRIIATVIHNEVDCDVFFPIDFRSSQSCLPWRKQDHSVLEAWVGSKVPQGKINENGFIYEFEMWIRDI

Variants of B1 are the subject of this data set. Put plainly: selection coefficient against synonymous wild-type codons (log2 per generation); higher = faster growth than wild type. As to conditions: with Saccharomyces cerevisiae carrying the variant on a plasmid. The protocol:
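Pooled growth of yeast carrying single-residue variants of P. jirovecii dihydrofolate reductase (own DFR1 gene intact), two passages at 30 °C, three cultures, sequenced before and after. Codons with under 15 starting reads are left out; codons of one change are averaged.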

± gives the standard deviation of the averaged measurements. Growth of baker's yeast expressing single-residue variants of Pneumocystis jirovecii dihydrofolate reductase in 8.8 or 44 µM methotrexate (about 75% and 90% inhibition of the wild type). Selection coefficient per generation; 0 = like wild type, above 0 = less sensitive, below 0 = more sensitive or loss of function. No active / inactive call per row; the paper calls resistant above 0.220 (8.8 µM) or 0.243 (44 µM) together with a significance test. At 44 µM about 15% of codons end with one read or none, so the lowest values are floors (replicate rank correlation 0.74; 0.94 at 8.8 µM).

Regarding S106P, the “selection coefficient against synonymous wild-type codons (log2)” value (“selection coefficient … (log2)” below) by setting is: (methotrexate 8.8 µM) -0.013 ± 0.04; (methotrexate 44 µM) -0.114 ± 0.11.

Take A92I: the “selection coefficient … (log2)” value is, setting by setting: (methotrexate 8.8 µM) -0.61 ± 0.059; (methotrexate 44 µM) -0.381 ± 0.032.

As to V85H, the “selection coefficient … (log2)” value turned out to be 0.228 ± 0.025 (methotrexate 8.8 µM) and 0.313 ± 0.064 (methotrexate 44 µM).

On to V85M, for which the “selection coefficient … (log2)” value (methotrexate 8.8 µM) was -0.0553 ± 0.0094 and the “selection coefficient … (log2)” value (methotrexate 44 µM) is -0.0328 ± 0.05.

Consider L9G, for which the “selection coefficient … (log2)” value runs as follows: (methotrexate 8.8 µM) -0.233 ± 0.055; (methotrexate 44 µM) -0.218 ± 0.11.

Consider R140Q, for which the “selection coefficient … (log2)” value is, setting by setting: (methotrexate 8.8 µM) 0.0916 ± 0.027; (methotrexate 44 µM) 0.0888 ± 0.078.

In the case of R140V, the “selection coefficient … (log2)” value is -0.0454 ± 0.026 (methotrexate 8.8 µM) and -0.0816 ± 0.076 (methotrexate 44 µM).

Take R140I: the “selection coefficient … (log2)” value is, setting by setting: (methotrexate 8.8 µM) -0.206 ± 0.051; (methotrexate 44 µM) -0.155 ± 0.12.

Turning to R161P, the “selection coefficient … (log2)” value is, setting by setting: (methotrexate 8.8 µM) 0.293 ± 0.034; (methotrexate 44 µM) 0.226 ± 0.023.

With R161V, the “selection coefficient … (log2)” value runs as follows: (methotrexate 8.8 µM) 0.103 ± 0.03; (methotrexate 44 µM) 0.0114 ± 0.12.

For I196S, the “selection coefficient … (log2)” value was determined as 0.0976 ± 0.033 (methotrexate 8.8 µM) and 0.0602 ± 0.064 (methotrexate 44 µM).

Turning to I196M, the “selection coefficient … (log2)” value by setting is: (methotrexate 8.8 µM) -0.00528 ± 0.06; (methotrexate 44 µM) -0.0477 ± 0.071.

In the case of I196T, the “selection coefficient … (log2)” value is, setting by setting: (methotrexate 8.8 µM) 0.132 ± 0.047; (methotrexate 44 µM) 0.0677 ± 0.072.

As to D205S, the “selection coefficient … (log2)” value is, setting by setting: (methotrexate 8.8 µM) -0.173 ± 0.063; (methotrexate 44 µM) -0.253 ± 0.084.

In the case of D205E, the “selection coefficient … (log2)” value (methotrexate 8.8 µM) was -0.0762 ± 0.038 and the “selection coefficient … (log2)” value (methotrexate 44 µM) was -0.125 ± 0.033.

With D110C, the “selection coefficient … (log2)” value (methotrexate 8.8 µM) was -0.159 ± 0.03 and the “selection coefficient … (log2)” value (methotrexate 44 µM) worked out at 0.498 ± 0.14.

With D110G, the “selection coefficient … (log2)” value by setting is: (methotrexate 8.8 µM) -0.119 ± 0.026; (methotrexate 44 µM) -0.0359 ± 0.076.

Take G91H: the “selection coefficient … (log2)” value by setting is: (methotrexate 8.8 µM) 0.0784 ± 0.015; (methotrexate 44 µM) 0.132 ± 0.079.

Consider Q51R, for which the “selection coefficient … (log2)” value is -0.0955 ± 0.07 (methotrexate 8.8 µM) and -0.112 ± 0.14 (methotrexate 44 µM).

Regarding R59N, the “selection coefficient … (log2)” value was -0.245 ± 0.064 (methotrexate 8.8 µM) and -0.0811 ± 0.18 (methotrexate 44 µM).

For R59M, the “selection coefficient … (log2)” value reads like this: (methotrexate 8.8 µM) 0.0299 ± 0.058; (methotrexate 44 µM) -0.152 ± 0.14.

Turning to L86T, the “selection coefficient … (log2)” value is -0.00557 ± 0.04 (methotrexate 8.8 µM) and -0.0809 ± 0.12 (methotrexate 44 µM).

As to R96P, the “selection coefficient … (log2)” value was -0.461 ± 0.17 (methotrexate 8.8 µM) and -0.176 ± 0.048 (methotrexate 44 µM).

As to R96V, the “selection coefficient … (log2)” value by setting is: (methotrexate 8.8 µM) -0.406 ± 0.11; (methotrexate 44 µM) -0.309 ± 0.075.

C129W: the “selection coefficient … (log2)” value is, setting by setting: (methotrexate 8.8 µM) 0.454 ± 0.021; (methotrexate 44 µM) 0.717 ± 0.038.

As to C129F, the “selection coefficient … (log2)” value turned out to be 0.224 ± 0.031 (methotrexate 8.8 µM) and 0.262 ± 0.031 (methotrexate 44 µM).

On to C129K, for which the “selection coefficient … (log2)” value was -0.213 ± 0.095 (methotrexate 8.8 µM) and -0.116 ± 0.16 (methotrexate 44 µM).

As for A103E, the “selection coefficient … (log2)” value (methotrexate 8.8 µM) stood at 0.0546 ± 0.031 and the “selection coefficient … (log2)” value (methotrexate 44 µM) stood at 0.0919 ± 0.095.

As for A103F, the “selection coefficient … (log2)” value was -0.193 ± 0.052 (methotrexate 8.8 µM) and -0.254 ± 0.05 (methotrexate 44 µM).

For the variant R119K, the “selection coefficient … (log2)” value reads like this: (methotrexate 8.8 µM) 0.0888 ± 0.042; (methotrexate 44 µM) 0.154 ± 0.13.

G126H: the “selection coefficient … (log2)” value (methotrexate 8.8 µM) worked out at 0.357 ± 0.032 and the “selection coefficient … (log2)” value (methotrexate 44 µM) was 0.517 ± 0.068.

Regarding G126Q, the “selection coefficient … (log2)” value (methotrexate 8.8 µM) stood at 0.36 ± 0.056 and the “selection coefficient … (log2)” value (methotrexate 44 µM) came out at 0.519 ± 0.0094.

On to V176P, for which the “selection coefficient … (log2)” value reads like this: (methotrexate 8.8 µM) -0.136 ± 0.032; (methotrexate 44 µM) -0.264 ± 0.14.

With K60A, the “selection coefficient … (log2)” value (methotrexate 8.8 µM) is -0.0982 ± 0.067 and the “selection coefficient … (log2)” value (methotrexate 44 µM) is -0.144 ± 0.17.

For V120D, the “selection coefficient … (log2)” value is, setting by setting: (methotrexate 8.8 µM) -0.259 ± 0.056; (methotrexate 44 µM) -0.0631 ± 0.098.

Turning to S16P, the “selection coefficient … (log2)” value by setting is: (methotrexate 8.8 µM) 0.4 ± 0.056; (methotrexate 44 µM) 0.422 ± 0.058.

For the variant Q107T, the “selection coefficient … (log2)” value (methotrexate 8.8 µM) is -0.00899 ± 0.044 and the “selection coefficient … (log2)” value (methotrexate 44 µM) is -0.0337 ± 0.16.

As for F199W, the “selection coefficient … (log2)” value by setting is: (methotrexate 8.8 µM) 0.859 ± 0.056; (methotrexate 44 µM) 1.16 ± 0.025.

On to D153M, for which the “selection coefficient … (log2)” value (methotrexate 8.8 µM) is -0.112 ± 0.014 and the “selection coefficient … (log2)” value (methotrexate 44 µM) is -0.111 ± 0.058.

For D153C, the “selection coefficient … (log2)” value reads like this: (methotrexate 8.8 µM) -0.0264 ± 0.048; (methotrexate 44 µM) -0.135 ± 0.078.

As to D153R, the “selection coefficient … (log2)” value by setting is: (methotrexate 8.8 µM) 0.232 ± 0.058; (methotrexate 44 µM) 0.216 ± 0.062.

On to S113Y, for which the “selection coefficient … (log2)” value is -0.267 ± 0.26 (methotrexate 8.8 µM) and 0.288 ± 0.63 (methotrexate 44 µM).

On to S113K, for which the “selection coefficient … (log2)” value is, setting by setting: (methotrexate 8.8 µM) -0.0488 ± 0.03; (methotrexate 44 µM) -0.131 ± 0.2.

Consider S113W, for which the “selection coefficient … (log2)” value is, setting by setting: (methotrexate 8.8 µM) -0.523 ± 0.035; (methotrexate 44 µM) -0.358 ± 0.31.

Turning to R70V, the “selection coefficient … (log2)” value by setting is: (methotrexate 8.8 µM) -0.0738 ± 0.088; (methotrexate 44 µM) -0.107 ± 0.058.

With S97L, the “selection coefficient … (log2)” value (methotrexate 8.8 µM) is -0.733 ± 0.083 and the “selection coefficient … (log2)” value (methotrexate 44 µM) is -0.273 ± 0.069.

S97W: the “selection coefficient … (log2)” value is, setting by setting: (methotrexate 8.8 µM) -0.545 ± 0.16; (methotrexate 44 µM) -0.113 ± 0.035.

Take E149C: the “selection coefficient … (log2)” value by setting is: (methotrexate 8.8 µM) -0.303 ± 0.11; (methotrexate 44 µM) -0.348 ± 0.099.

As for E149I, the “selection coefficient … (log2)” value was -0.316 ± 0.16 (methotrexate 8.8 µM) and -0.277 ± 0.097 (methotrexate 44 µM).

With E149Q, the “selection coefficient … (log2)” value was -0.0686 ± 0.017 (methotrexate 8.8 µM) and -0.153 ± 0.21 (methotrexate 44 µM).

Take L88P: the “selection coefficient … (log2)” value by setting is: (methotrexate 8.8 µM) -0.184 ± 0.05; (methotrexate 44 µM) -0.169 ± 0.12.

With I19G, the “selection coefficient … (log2)” value by setting is: (methotrexate 8.8 µM) 0.803 ± 0.057; (methotrexate 44 µM) 0.965 ± 0.028.

For the variant W180T, the “selection coefficient … (log2)” value (methotrexate 8.8 µM) came to 0.168 ± 0.04 and the “selection coefficient … (log2)” value (methotrexate 44 µM) came to 0.1 ± 0.062.

As for L15W, the “selection coefficient … (log2)” value by setting is: (methotrexate 8.8 µM) 0.237 ± 0.0046; (methotrexate 44 µM) 0.21 ± 0.058.

In the case of L15Y, the “selection coefficient … (log2)” value runs as follows: (methotrexate 8.8 µM) 0.164 ± 0.066; (methotrexate 44 µM) 0.21 ± 0.14.

Consider V78R, for which the “selection coefficient … (log2)” value is, setting by setting: (methotrexate 8.8 µM) -0.746 ± 0.077; (methotrexate 44 µM) -0.257 ± 0.073.

In the case of V181Q, the “selection coefficient … (log2)” value is, setting by setting: (methotrexate 8.8 µM) 0.0216 ± 0.084; (methotrexate 44 µM) 0.0111 ± 0.11.

V181T: the “selection coefficient … (log2)” value came to 0.0631 ± 0.057 (methotrexate 8.8 µM) and 0.0677 ± 0.15 (methotrexate 44 µM).
